# According to the supplement of paper PMC11417369:
# This is one part of the list.
# System: PF3D7_0420300 AP2 domain 1 (GST-tagged)
# Assay: gcPBM binding intensity (ln(normalized median fluorescence intensity)); higher = stronger DNA binding
# How it was run: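 Binding intensity values are the highest Masliner-normalised natural-log median intensity among replicate spots of either probe orientation. The binding step lasted 1 h in 1× PBS with 1% milk, 0.2 mg/ml BSA, 0.5% salmon testes DNA and 0.03% Triton X-100, using GST-tagged P. falciparum DNA-binding domains expressed in E. coli on an Agilent 4 × 180k array of primer-extended double-stranded 36-bp intergenic genomic probes plus negative controls. Alexa488 anti-GST antibody and a 488 nm scan detected bound protein.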
row,Sequence,gcPBM binding intensity (ln)
1,CACAACAGGGTTGAGGTGCGTAAAAATAGTAGAATA [GTGCAC_site9523],9.03
2,ACATAAAAATTATGCACACTTAATAAAGCGAAATGT [CACACA_site3183],9.45
3,TTTTTAATCCTTTGCGCATGTAAAATTATATATTTT [TGCATGCA_site306],9.24
4,TATATATATATGTGTACACAAAAAATATTATATTAT [CACACA_site5505],9.32
5,ATTCTATTTTTAAGTACACACATATATATATATATA [CACACA_site3658],9.48
6,ACATAATTATTATGCACACATATTTTTATGTATTTA [CACACA_site698],9.49
7,ATTATATATATATTATGTACATATATTGAAGTGGAT [XGTACX_site5916],9.39
8,TACGAAATCATATGTACACACACATATATATATATA [CACACA_site5216],9.69
9,ACGGATTAAAAAATGTGTACGCACAAAAAAAAAAAT [XGTACX_site8259],9.43
10,TGTTCAGTATTGCACACACACAACAAAATAAAAAAA [CACACA_site6314],9.78
11,ATATATATATATATATGTACTTAATGTTATTATATA [XGTACX_site4508],9.07
12,GAAATGTGATAATATACACACACGCATATATATATA [CACACA_site4332],9.71
13,TTTTTAAAAAGTAACACACACTCTTATATATAATGA [CACACA_site3618],9.53
14,AAAAAAAACAGACACACACACATAAATATAAATAAA [CACACA_site6214],9.96
15,TATACATATATATATATATATAGATATATTCACGTG [XGTACX_negctrl_site265],9.18
16,AAAATAATAATAAATGCATGTGTTGTTTACTAAGAA [TGCATGCA_site528],9.53
17,TACCTATACAGACACACACACACACGCCCACAAAAA [CACACA_site6375],10.3
18,TTTTTATATTTATATAAATAAAAAAATAACAAAATG [XGTACX_negctrl_site231],9.03
19,CTCCATATTAGACACACACACAAATGAAAAAAATAT [CACACA_site7420],9.96
20,TAAAATTAAACAAAAAAAAAGAAAAAAAAAAAAAAG [CACACA_negctrl_site1098],9.35
21,TGAACATACATCAAAAGTACAAACTCGCATGTTATA [XGTACX_site3320],9.33
22,CCGCCATTGTACCATCCACACACATATATATATGTA [CACACA_site8866],9.97
23,AATATTCTATATGATACATGCATGATGGAATAAAAA [TGCATGCA_site980],9.08

row,Sequence,gcPBM binding intensity (ln)
1,AATGTAGACACATATGTACACACATATATATGTATA [CACACA_site9014],9.52
2,TTTTGGTATACGTAATTATATAATATGTTAATCAAT [CACACA_negctrl_site645],9.14
3,ATATATTTTTATATAGTGCAAGTAATAAAAAGGAAT,9.5
4,GGAAAAAAATAAAATAAGTATTTTACATACATATTG [TGCATGCA_negctrl_site10],9
5,ATAACATTCAAAAAATGTACAAACATATGAATAAAT [XGTACX_site7013],9.27
6,AAAACTTTTTTAACAGAAAAATAGGGATACAATATA [CACACA_negctrl_site1708],9.35
7,ATATCATTTTATTTGTGTACTTAAAAAGTTGCAATG [XGTACX_site4099],9.22
8,GGAATAACCAGACACACACACACATATAAATATGTA [CACACA_site7632],10.1
9,TAAATACAAGAACTGACACACATACATACTACATTT [CACACA_site5561],9.83
10,TGAAAATATATAACGCGTACAAAAAGGAAATACAAT [XGTACX_site3534],9.71
11,AAATAGTTGTTAAAGGTGCACAATATGGATATAAGA,9.53
12,TTTTTTTTTTTTTTTGCATGTTGAAAATAAAATTAT [TGCATGCA_site86],8.64
13,ATTTATTTTAAATAAGTGCAAAATGGTTATAAATAA,9.06
14,ATAAATATTTTGTAAGCATGCTTTTAAAAAAAGAAA [TGCATGCA_site572],8.88
15,AAAATTTCAATAAATACACACATATAAATATAGATT [CACACA_site6893],9.5
16,ATGTACTATAGGCACACACACTCACATATATATATA [CACACA_site5745],9.83
17,ATATTGCTTATTTGATGTACGAATACACTAGTATTA [XGTACX_site4536],9.29
18,ATACTAAATGAACACACACACATATAGATTTATAAC [CACACA_site6200],10.2
19,TATCTGTATATGTGTACACATATTCTTAACTCACGC [CACACA_site4255],9.35
20,ATTTTATGAAATGTTGCACACAAAAAACAACATGTT [CACACA_site8408],9.34
21,TATATGATATAATATACACACATACATATATATATA [CACACA_site8066],9.44
22,GAACAACAACAAAAAAAAAAAAAAAAAAAAAAAAAA [CACACA_negctrl_site199],8.63
23,TAAATAAATATATGTACACACACAAATATATACATA [CACACA_site8577],9.63

row,Sequence,gcPBM binding intensity (ln)
1,CTGAATTTTTATAACTGTACATATTTGATATAAAAA [XGTACX_site183],8.89
2,ATATTTAATACAAATACACACACAAATATATACATA [CACACA_site9248],10.1
3,ATGGGAAAAACATTCCGTACATACATACACATATAT [XGTACX_site8263],9.4
4,ATGATTTATTATTATACACACAAAAAAAAAAAAGGA [CACACA_site264],9.51
5,GAACAAAAAAAAAATTGTACACAATTTTTTAAAATT [XGTACX_site4455],8.98
6,AATACATACATATATACATGCATACATATAAATATA [TGCATGCA_site674],9.41
7,GCTTATAAGATATGCACACACAACACTTACAAAAAA [CACACA_site817],9.74
8,AAACAAAAAAAATAAGCACACATATATATATATATA [CACACA_site8173],9.43
9,AAAATTATATGTAATTGTACGGAATTATATACGCAA [XGTACX_site2048],9.25
10,TCCTGTGGTTATATAACACACATTATTGCTTATAAG [CACACA_site6823],9.48
11,TTTTTTAAAAATATTATCATCGTAACAAGAAATCGA [CACACA_negctrl_site1111],8.94
12,TTTTTTTTTTTTTTTGCACACTTAAATTTGGTGGGG [CACACA_site2344],9.74
13,ATATTATTTTATTTTTGTACAGATATCTTTAAAAAA [XGTACX_site3734],9.09
14,TACAGATAAATATACATACATATATATATATATATA [XGTACX_negctrl_site182],9.05
15,CACGCGCACGAACACACACACACACGCATATAAATA [CACACA_site7103],10.3
16,AACATCATCTCTCCACAACAACAAAAAAAAAAATAC [CACACA_negctrl_site311],9.4
17,TTATTAAAAATGGTATGTACGCACATAATATATATA [XGTACX_site3230],9.2
18,AATACATACATACATACATGCATATATATATATATA [TGCATGCA_site462],9.42
19,TATTTTTATTGGTGAATACACACGTATATATATATT [CACACA_site2401],9.45
20,TGTTTATGTTTACATGTGCGCATTACAGAAAAAAAA [GTGCAC_site9669],9.06
21,TTTTTATTTAAAAGTAGTACAAGGGTTATTATTAAC [XGTACX_site1555],8.97
22,GAAATCTAATTTATTACACACATTTGAAAAAAATTC [CACACA_site6640],9.23
23,ACCCATTTTTGTTGTTCTATATATTCGTGAATCATT [CACACA_negctrl_site614],9.53

row,Sequence,gcPBM binding intensity (ln)
1,TTATATTTTTTTGAGTGTACTTTTTGTGTAAAATTC [XGTACX_site2155],9.09
2,TTACTAAGAAGGATTTATTTTATAAAAATATTTATT [XGTACX_negctrl_site549],8.87
3,AATTTTTTGAATAATTGTACATATTTGGTTAAATAT [XGTACX_site3612],9.16
4,ATATTTTATACTTGCACACAAAATATATTAGAATGT [CACACA_site1985],9.41
5,CATATTATTTATATTTGTACACAGCGATATGAAATA [XGTACX_site7717],9.29
6,CTTACATAAAATATCACACACATAAAAAAACAATAT [CACACA_site1901],10.1
7,TATATATATATATATGTGCACATATATATGATATTA,9.11
8,TTATATAAATATAAGGTGCTGGGGTTTATTACATAT [GTGCAC_site9909],9.53
9,ATATCGCACGTTTGAAGTACATAAAAACGATTAATA [XGTACX_site7684],9.06
10,CACCAATTCATATGCACACACATCTGCATATTATAG [CACACA_site6925],9.79
11,ATCATTTTTATAAATTGTACAAATATTTTTTATACA [XGTACX_site7551],9.13
12,ATTTCGTAATTTATATCACACACATATATATATAAT [CACACA_site9021],9.67
13,ATATATGGGTAGTATACACACTGTATATTTAGGAAT [CACACA_site7357],9.46
14,GTATGAAAAAAATATGCATGCTAAATAATAAATGTT [TGCATGCA_site352],9.34
15,TATATATATATACATACATATAAAGTTACATAAACA [CACACA_negctrl_site432],9.25
16,GAACAAACAAAGAAAGAACACACATACACAATATAC [CACACA_site8918],10.1
17,TAGATTTTTTTACATTGTACATATTTTTTCTTATAG [XGTACX_site293],9.46
18,TATAAAATATAAATTTGTACATATAAAATATTTTAT [XGTACX_site7462],9.02
19,TTTTTTAAAATATAAAATATGTACAAATATGTTGAA [GTGCAC_negctrl_site379],8.91
20,TAATAGTTATAAAATACACACCAGGCATGATAAATG [CACACA_site4335],9.5
